Reference: PubChem BioAssay AID504339 (National Center for Advancing Translational Sciences (NCATS), 2011)
Several values for one entry are separate records, joined by “and”; a condition that tells them apart may be missing. Equal values may be shown once. The whole screen tested about 390,000 compounds, of which about 17,000 (4.4%) were called active. The inconclusive results got no clear call from the source; some entries with a clear call stand among them for comparison. Calls follow the shape of the dose curve; as a rule, active = well fitted inhibition curve with a large enough effect; inconclusive = small, poorly fitted or top-dose-only effect; inactive = no such curve, though single readings can be large or run the other way. Potencies beside an inconclusive call are fits to weak or partial responses and may not hold up.

molecular target: Lysine-specific demethylase 4A (Homo sapiens) (UniProt O75164); assay: qHTS Assay for Inhibitors of JMJD2A-Tudor Domain; details: AlphaScreen JMJD2A-Tudor / H3K4me3 peptide binding; activity change, negative = inhibition: at 114 µM (top of the series); also: nearly all actives have a fitted effect of over 50% in size
UniProt O75164, sequence (O75164 whole entry, looked up, the tested form may be a part): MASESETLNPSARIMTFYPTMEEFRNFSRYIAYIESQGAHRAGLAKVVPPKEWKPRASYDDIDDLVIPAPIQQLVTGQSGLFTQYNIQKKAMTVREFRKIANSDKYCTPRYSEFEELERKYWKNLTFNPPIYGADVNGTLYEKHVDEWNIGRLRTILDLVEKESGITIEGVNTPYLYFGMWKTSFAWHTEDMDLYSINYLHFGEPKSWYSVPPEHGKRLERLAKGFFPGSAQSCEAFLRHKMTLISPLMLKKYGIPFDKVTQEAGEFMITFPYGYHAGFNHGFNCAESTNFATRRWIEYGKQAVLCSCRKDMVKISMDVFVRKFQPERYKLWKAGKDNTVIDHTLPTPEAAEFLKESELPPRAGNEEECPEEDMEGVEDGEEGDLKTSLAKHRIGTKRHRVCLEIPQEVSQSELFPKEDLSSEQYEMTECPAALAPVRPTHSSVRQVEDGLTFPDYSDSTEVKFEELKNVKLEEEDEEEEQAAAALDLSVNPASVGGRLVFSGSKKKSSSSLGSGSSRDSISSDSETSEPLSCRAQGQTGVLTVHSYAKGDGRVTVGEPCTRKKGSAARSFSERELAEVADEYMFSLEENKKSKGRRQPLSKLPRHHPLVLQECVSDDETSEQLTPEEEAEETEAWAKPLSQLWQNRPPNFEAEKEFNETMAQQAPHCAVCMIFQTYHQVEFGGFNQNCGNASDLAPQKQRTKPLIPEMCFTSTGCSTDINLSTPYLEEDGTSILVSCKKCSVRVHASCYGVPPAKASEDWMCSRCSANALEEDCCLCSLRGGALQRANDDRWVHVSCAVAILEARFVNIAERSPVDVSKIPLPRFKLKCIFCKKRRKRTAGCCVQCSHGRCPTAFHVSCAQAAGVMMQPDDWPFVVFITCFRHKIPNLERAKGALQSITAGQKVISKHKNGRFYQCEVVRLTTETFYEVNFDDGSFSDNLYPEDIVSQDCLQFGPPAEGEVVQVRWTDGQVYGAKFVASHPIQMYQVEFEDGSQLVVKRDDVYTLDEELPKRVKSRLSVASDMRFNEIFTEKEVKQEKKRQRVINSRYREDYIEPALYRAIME
% is scaled to controls: 0 for no effect and ±100 for the full control effect; potency is read from the fitted curve at half-maximal effect; tags tell the direction and shape of the fitted curve.

| SMILES | Potency | activity change, negative = inhibition |
| --- | --- | --- |
| S=c1[nH]nc(COc2ccccc2)n1/N=C/c1ccco1 | active: 17.8 µM | – |
| CC1CCN(c2oc(-c3ccc(COc4ccc(Cl)cc4)o3)nc2C#N)CC1 | inconclusive: 8.91 µM [inhibitor, full curve, poor fit] | – |
| O=C(NCCC1=CCCCC1)C1CCN(S(=O)(=O)N2CCOCC2)CC1 | inconclusive: 89.1 µM [inhibitor, single point] | – |
| C=CCOc1cccc(C2C(C(=O)c3ccc(C)o3)=C(O)C(=O)N2CCCn2ccnc2)c1 (stereo not given) | inconclusive: 50.1 µM [inhibitor, partial curve] | – |
| COc1ccc(C(=O)N2CCCC(N3CCN(c4ccccc4F)CC3)C2)c(OC)n1 (stereo not given) | inconclusive: 22.4 µM [inhibitor, full curve] | – |
| CCC(CC)C(=O)c1c[nH]c(C(=O)NCc2ccncc2)c1 | inconclusive: 28.2 µM [inhibitor, single point] | – |
| CC(C(=O)Nc1ccccn1)N1C(=O)c2ccccc2S1(=O)=O (stereo not given) | – | inactive: -19.3% |
| CC1(C)CC(=O)C(C(=O)C2CCN(S(=O)(=O)c3ccccc3)CC2)C(=O)C1 | active: 100 µM | – |
| COc1ccc2[nH]cc(CCNC(=O)C3CCCO3)c2c1 (stereo not given) | inconclusive: 25.1 µM [inhibitor, single point] | – |
| O=C(NCc1ccccc1)C(c1cccnc1)N(Cc1ccco1)C(=O)c1ccccn1 (stereo not given) | inconclusive: 14.1 µM [inhibitor, partial curve, poor fit] | – |
| CCOc1cc(C2Sc3ccccc3NC3=C2C(=O)c2ccccc23)ccc1O (stereo not given) | active: 14.1 µM | – |
| Cc1ccc(NC(=O)CCC(=O)OCC(F)(F)C(F)F)cc1 | inconclusive: 100 µM [inhibitor, partial curve] | – |
| COc1cc(C#Cc2c(-c3cncn3C)n(C)c3ccc(-c4ccc5cc[nH]c5c4)cc23)cc(OC)c1 | inconclusive: 35.5 µM [inhibitor, partial curve] | – |
| CC12CN3CC(C)(CN(C1)C3c1c[nH]c3ccccc13)C2=O (stereo not given) | – | inactive: -13.8% |
| CCOC(=O)c1ccccc1NC(=O)CSc1nnc(Cc2cccn2C)n1-c1ccc(C)cc1 | inconclusive: 50.1 µM [inhibitor, partial curve] | – |
| COc1ccc(Nc2cc(C(=O)NCCCN(C)Cc3ccccc3)c3ccccc3n2)cc1 | inconclusive: 39.8 µM [inhibitor, partial curve] | – |
| CCOc1ccccc1CNC(=O)CCc1cn(CC)c2ccccc12 | inconclusive: 56.2 µM [inhibitor, partial curve] | – |
| COc1ccc(NC(=O)CC2Nc3cccc4cccc(c34)NC2=O)cc1 (stereo not given) | inactive and inconclusive: 56.2 µM [inhibitor, partial curve, poor fit] | – |
| CN1CCN(CC(=O)O)CC1 | inconclusive: 56.2 µM [inhibitor, partial curve] | – |
| O=C(CN1CCCCCCC1)N/N=C/c1ccc([N+](=O)[O-])o1 | active: 17.8 µM | – |
| O=C(N/N=C/c1ccco1)C1CC1c1ccccc1 (stereo not given) | inconclusive: 50.1 µM [inhibitor, partial curve] | – |
| COc1ccccc1N1CCN(S(=O)(=O)c2ccc(F)cc2)CC1 | – | inactive: -10.8% |
| CC(=O)Nc1ccc2nc(CN3CCC(CO)(CCc4ccccc4)CC3)ccc2c1 | active: 31.6 µM | – |
| Cc1onc(-c2ccccc2)c1C(=O)N1CCN(c2ccc([N+](=O)[O-])cc2)CC1 | – | inactive: -33.8% |

| SMILES | Potency | activity change, negative = inhibition |
| --- | --- | --- |
| CN(Cc1cccs1)c1ncnc2ccc(-c3ccc4cn(C)nc4c3)cc12 | – | inactive: -24.8% |
| CCN1CCN(c2cc(C)c3cc(NC(=O)CCC(=O)N4CCN(c5ccccc5)CC4)ccc3n2)CC1 | inconclusive: 89.1 µM [inhibitor, partial curve, poor fit] | – |
| Cc1nc(NC(=O)COC(=O)C2=NNC(=O)CC2)c(Cl)cc1Cl | inconclusive: 20 µM [inhibitor, partial curve] | – |
| O=C(Nc1ccc(Cl)cc1C(=O)NCC1CCCO1)c1ccc(Cl)cc1Cl (stereo not given) | – | inactive: -7.14% |
| NC(=O)/C(=C/c1ccco1)NC(=O)c1ccc(Br)o1 | inconclusive: 89.1 µM [inhibitor, single point] | – |
| CN(CCc1ccccc1)C(=O)c1cccc(NC(=O)Cc2ccc([N+](=O)[O-])cc2)c1 | inconclusive: 100 µM [inhibitor, partial curve, poor fit] | – |
| Cc1c(C(=O)N(C)CCC#N)oc2ccc(S(=O)(=O)N3CC(C)CC(C)C3)cc12 (stereo not given) | inconclusive: 20 µM [inhibitor, full curve] | – |
| Nc1ccc(C(CC(=O)O)n2cccc2)cc1 (stereo not given) | inconclusive: 100 µM [inhibitor, single point] | – |
| O=C(Cn1cnc(S(=O)(=O)N2CCOCC2)c1)Nc1ccc(OC(F)(F)F)cc1 | – | inactive: -10.3% |
| COC(=O)c1ccc(C(NC(=O)OCc2ccccc2)/C(C)=C/[C@@H](C)C(=O)NCc2ccc(OC)c(OC)c2)cc1 (stereo not given in full) | – | inactive: -17.3% |
| COc1ccc(NC(=O)c2ccco2)cc1NC(=O)C(C)Oc1ccc(Cl)cc1Cl (stereo not given) | inconclusive: 31.6 µM [inhibitor, partial curve] | – |
| COc1ccc(/C=N/N2CCOCC2)cc1OCc1ccccc1 | inconclusive: 44.7 µM [inhibitor, partial curve] | – |
| Cc1nc(NC(=O)c2ccccc2)sc1-c1csc(NCc2ccco2)n1 | inconclusive: 50.1 µM [inhibitor, partial curve] | – |
| Cc1ccc(C(=O)N2CCCC(N3CCN(c4ccccc4C)CC3)C2)c(=O)[nH]1 (stereo not given) | active: 50.1 µM | – |
| O=C(Nc1ccc(F)cc1F)c1noc2c1CCC2 | active: 79.4 µM | – |
| Cc1ccccc1-n1sc2cc(F)ccc2c1=O | active: 4.47 µM | – |
| CCn1c(C)c(C2=CCN(S(=O)(=O)c3ccc(C)cc3)CC2)c2ccccc21 | inconclusive: 15.8 µM [inhibitor, partial curve] | – |
| C[C@]12CCC3C(CC=C4C[C@@H](O)CC[C@@]43C)C1CCC2[C@]1(C)CCC(=O)O1 (stereo not given in full) | inconclusive: 22.4 µM [inhibitor, full curve] | – |
| CCN(CC)CCCN(C(=O)c1ccc(OC)cc1)c1nc(-c2ccc(OC)cc2)cs1 | inconclusive: 44.7 µM [inhibitor, partial curve] | – |
| COc1ccc(NC(=O)C(c2ccc(OC)cc2)N(Cc2ccco2)C(=O)CC2NC(=O)NC2=O)cc1 (stereo not given) | – | inactive: -11.9% |
| COc1ccc(/C=N/c2oc(-c3ccccc3)cc2C#N)cc1OC | inconclusive: 20 µM [inhibitor, full curve] | – |
| Cc1ccc2[nH]c(O)c(N=NC(=O)C(C)n3cnc4ccccc4c3=O)c2c1 (stereo not given) | inconclusive: 79.4 µM [inhibitor, single point] | – |
| COCCNC(=S)NNc1ccccc1[N+](=O)[O-] | inconclusive: 44.7 µM [inhibitor, partial curve] | – |
| O=C(c1ccccc1[N+](=O)[O-])N1CCN(c2ccc(N3CCOCC3)nn2)CC1 | – | inactive: -10.3% |

| SMILES | Potency | activity change, negative = inhibition |
| --- | --- | --- |
| Cc1c(CCC(=O)NCCCn2ccnc2)c(=O)oc2c(C)c3occ(C(C)(C)C)c3cc12 | inconclusive: 56.2 µM [inhibitor, partial curve, poor fit] | – |
| COc1ccc(-n2c(C)ccc2C)c([N+](=O)[O-])c1 | – | inconclusive: -53.6% [inhibitor] |
| CCOc1ccc(C2=Nc3ccc(Br)cc3C(c3ccc(N4CCOCC4)cc3)=NN2)cc1 | – | inactive: -18.6% |
| Cc1cc(C)n(CCC(=O)N2CCCC(Nc3ccc(F)cc3)C2)n1 (stereo not given) | – | inactive: -8.28% |
| Cn1c(=O)c(=O)n(C)c2cc(S(=O)(=O)NCc3ccc(Cl)cc3)ccc21 | inconclusive: 11.2 µM [inhibitor, full curve] | – |
| CN1C(=O)/C(=C/c2cccc([N+](=O)[O-])c2)C(=O)N1c1ccccc1 | inconclusive: 25.1 µM [inhibitor, partial curve] | – |
| Cc1cc(C)c(C)c(S(=O)(=O)NCC(=O)Nc2ccc(F)cc2)c1C | – | inactive: -7.69% |
| CC(C=Cc1ccccc1)=NNS(=O)(=O)c1ccc([N+](=O)[O-])cc1 | inconclusive: 14.1 µM [inhibitor, partial curve, poor fit] | – |
| O=C(NC1CCCCC1)C1CCN(c2nnnn2-c2ccccc2)CC1 | – | inactive: -5.22% |
| CCCCn1c(O)c(N=NC(=O)c2ccco2)c2ccccc21 | inconclusive: 25.1 µM [inhibitor, single point] | – |
| Nc1c(-c2ccccc2)cnc2ncnn12 | – | inactive: -5.38% |
| CC(=O)C1=C(O)C(CSCc2ccccc2)N(C)C1=O (stereo not given) | inconclusive: 39.8 µM [inhibitor, single point] | – |
| O=C(Nc1ccc(F)c(Cl)c1)C1Cc2ccccc2CN1S(=O)(=O)c1ccc(F)cc1 (stereo not given) | – | inactive: -12.8% |
| Cn1c(C(=O)N2CCN(c3ccccc3)CC2)cc2cc(Cl)ccc21 | – | inactive: 3.28% |
| CC(NC(=O)/C(C#N)=C1\N=C(NC(=O)c2ccco2)c2ccccc21)c1ccccc1 (stereo not given) | inconclusive: 28.2 µM [inhibitor, partial curve] | – |
| O=C(COC(=O)COc1ccccc1)Nc1ncc([N+](=O)[O-])s1 | active: 79.4 µM | – |
| COc1ccccc1Nc1nnc(SCc2cc(=O)n3cc(C)ccc3n2)s1 | – | inactive: -8.33% |
| Cc1ccc(Cn2ccn(Cc3cccc(C(F)(F)F)c3)c(=O)c2=O)cc1 | inconclusive: 56.2 µM [inhibitor, partial curve] | – |
| CCOCCCNC(=S)N1CCN(Cc2ccco2)CC1 | – | inactive: -100% |
| COC(=O)c1ccc(C2C(C#N)=C(N)Oc3cc(O)ccc32)cc1 (stereo not given) | inconclusive: 100 µM [inhibitor, single point] | – |
| O=c1c2ccccc2nc(-c2ccco2)n1-c1nc2ccccc2s1 | inconclusive: 3.98 µM [inhibitor, single point] | – |
| O=C1C2C(c3ccccc3)C=CC(c3ccccc3)C2C(=O)N1c1ccncc1 (stereo not given) | inconclusive: 79.4 µM [inhibitor, partial curve] | – |
